The source of these data is ChEMBL document CHEMBL4888484, “Replenishing the malaria drug discovery pipeline: Screening and hit evaluation of the MMV Hit Generation Library 1 (HGL1) against asexual blood stage Plasmodium falciparum ,using a nano luciferase reporter read-out” (2022).

Molecules are shown by their SMILES. Hit rate of the full screen: of about 150,000 compounds, about 540 (0.36%) showed an effect of 50% or more. The list shows a part of the results.

The assay has as its system Plasmodium falciparum. As to the kind of experiment: Primary screen in NF54 nanoGlo assay, in single point, at 2uM, 72h; a lower Z score goes with more inhibition. Format: functional, Erythrocyte. Conditions: timepoint 72 hour.
Usually % Inhibition stands for the drop in the measured response relative to a control, in per cent. Take `CC(C)(C)c1ccc(OCC(=O)N2N=C3CCCCCC3C2(O)C(F)(F)F)cc1` (stereo not drawn): the “% Inhibition” value is on record as -10% and the Z score is 1.33.

Take `CS(=O)(=O)CC1(Cc2nc(Cc3ccccc3)no2)CC1`: the “% Inhibition” value is -12% and the Z score is reported as 1.11.

For `CCCNC(=O)Cc1c2c(n(CCc3ccccc3)c1C)CCCC2=O`, the “% Inhibition” value was -26% and the Z score is 2.25.

`O=C(Cn1ncn2nccc2c1=O)Nc1ccnc2c(Cl)cc(Br)cc12`: the “% Inhibition” value is -11% and the Z score was determined as 1.03.

With `Cc1cc2n(n1)CCCN2C(=O)CCC(=O)N1CCc2ccccc2C1`, the “% Inhibition” value amounted to 1% and the Z score is given as -0.1.

Consider `O=C1NC[C@@]2(CCCN(C(=O)c3cc(C(F)(F)F)ccc3Cl)C2)O1`, for which the “% Inhibition” value is -14% and the Z score is 1.52.

In the case of `Cc1cc(-c2nnc3n2CC(C)(C)CC3)c(C)o1`, the “% Inhibition” value came out at 36% and the Z score is listed as -4.88.

In the case of `CC(=O)Nc1ccc(Cc2nc(-c3cccc(-c4csc(C)n4)c3)no2)cc1`, the “% Inhibition” value was -11% and the Z score was 1.74.

Take `COc1ccc(Nc2ncccc2S(=O)(=O)Nc2ccc(C)cc2)cc1OC`: the “% Inhibition” value is -8% and the Z score came out at 1.58.

As for `CCOc1ccc(-c2cc3n(n2)CCCN(C(C)=O)C3)cc1`, the “% Inhibition” value is -9% and the Z score was determined as 0.97.

As for `COc1ccc([C@@H](O)Cn2cnc(C(=O)N3CCN(c4ccc(Cl)cc4)CC3)n2)cc1`, the “% Inhibition” value is listed as -11% and the Z score is on record as 1.28.

With `Cn1nc(-c2cc(F)cc(F)c2)cc1NC(=O)NC[C@H]1COCO1`, the “% Inhibition” value is -6% and the Z score worked out at 0.81.

As for `Cc1ccc(F)cc1CNC[C@H]1CC[C@@H](CO)O1`, the “% Inhibition” value is reported as 19% and the Z score is -2.36.

In the case of `CCCc1nc(C)sc1C(=O)Nc1nc(C(=O)OC)c(CC(C)C)s1`, the “% Inhibition” value is reported as -15% and the Z score is given as 1.9.

Regarding `COc1ccc(-c2cnn3c(C)cc(C)nc23)cc1S(=O)(=O)NCc1ccc(F)cc1F`, the “% Inhibition” value is -16% and the Z score stood at 1.57.

Regarding `CN(Cc1csc(-c2ccccc2)n1)C(=O)CN1CCOC1=O`, the “% Inhibition” value came to 2% and the Z score is -0.43.

As to `CCOc1ccc2nc(N3CCOC3=O)sc2c1`, the “% Inhibition” value is given as -38% and the Z score is recorded as 4.51.

For `COc1cc(CNc2ccc(Br)cc2CO)sn1`, the “% Inhibition” value is recorded as -9% and the Z score came to 1.54.

Take `Cc1cc(C(=O)NCc2ccco2)c2c(=O)n(C)c(=O)n(C)c2n1`: the “% Inhibition” value is -16% and the Z score is recorded as 2.13.

Regarding `Cc1ccc(C)c(CN2CC[C@]3(O)CCN(C(=O)C4CCC4)C[C@@H]3C2)c1`, the “% Inhibition” value is on record as -10% and the Z score is given as 1.43.

Take `O=C(CCS(=O)(=O)c1ccccc1)N1CCO[C@H](c2ccc(C(F)(F)F)cc2)C1`: the “% Inhibition” value is reported as -13% and the Z score is 2.07.

`Cn1cc(NC(=O)NCC(C)(C)C2CCOCC2)nn1`: the “% Inhibition” value is -13% and the Z score is on record as 2.48.

In the case of `Cc1ccc(F)c(C(=O)OCC2(C#N)CCOCC2)c1`, the “% Inhibition” value was -5% and the Z score was determined as 0.78.

Consider `CC(=O)c1ccccc1C(=O)NCc1ccnc(OC2CCC2)c1`, for which the “% Inhibition” value is on record as -14% and the Z score is given as 2.68.

Turning to `COc1ccc(C)cc1NC(=O)Cn1c(=O)n(C(C)C)c2ccc(S(=O)(=O)N3CCCC3)cc21`, the “% Inhibition” value was -2% and the Z score is 0.19.

Regarding `COCCc1nc(C[C@@H]2NC(=O)c3ccccc32)n(CC(C)(C)O)n1`, the “% Inhibition” value is -2% and the Z score stood at 0.44.

`Cc1nnccc1NC(=O)N(C)CC1(O)CCCCCC1`: the “% Inhibition” value is -15% and the Z score is 2.8.

As for `Cc1ccc(CS(=O)(=O)N2CCN(c3nc[nH]n3)CC2)cc1F`, the “% Inhibition” value is given as 1% and the Z score was -0.09.

Turning to `COc1cc(C(=O)NC(C)(C)c2cnn(C)c2)n[nH]1`, the “% Inhibition” value is recorded as 3% and the Z score is on record as -0.37.

For `Cc1cc(C(=O)Nc2ccc(N(C)C(=O)c3cc(C)sc3C)c(Cl)c2)c(C)s1`, the “% Inhibition” value is on record as -1% and the Z score worked out at 0.22.

With `CC(C)(C)c1nc(C(=O)Nc2c[nH]nn2)cs1`, the “% Inhibition” value turned out to be 2% and the Z score is recorded as -0.19.

As for `CC(C)c1ccc(C#N)c(N2CCC(N(C)C)CC2)n1`, the “% Inhibition” value was -10% and the Z score is listed as 1.73.

On to `COc1ccc(CCNC(=O)C(=Cc2cc(Br)ccc2OC)C(=O)NCCc2ccc(OC)cc2)cc1`, for which the “% Inhibition” value is recorded as -9% and the Z score was determined as 1.11.

For `COc1ccc(C2CN(C(=O)c3cccc(Cl)c3)CC2C(=O)N2CCOCC2)cc1` (stereo not drawn), the “% Inhibition” value turned out to be 0% and the Z score is reported as 0.01.

For the compound `c1ccc2c(CN(CC3CCN(C4CCCC4)CC3)C[C@H]3CCCO3)c[nH]c2c1`, the “% Inhibition” value was -13% and the Z score stood at 1.78.

For `Cc1cc(C(=O)NCC2(N(C)C)CC2)ns1`, the “% Inhibition” value was 1% and the Z score is listed as -0.12.

Consider `O=C(c1ccc(F)cc1)N1CCOc2ccc(CN3CCCCC3)cc2C1`, for which the “% Inhibition” value is given as -10% and the Z score was 1.05.

Regarding `O=C(COc1ccc(F)cc1)N1C2CCC1CC(n1nccn1)C2` (stereo not drawn), the “% Inhibition” value is on record as -8% and the Z score is given as 1.24.

In the case of `CN1CCN(C(=O)CCCc2ccccc2)C2(CCCC2)C1`, the “% Inhibition” value was -15% and the Z score was found to be 2.34.

On to `O=C1CC(C(=O)NCC2CCCOC2)(c2ccccc2)CN1` (stereo not drawn), for which the “% Inhibition” value is given as -14% and the Z score stood at 1.38.

For `Cn1nc2nc(N3CCN(Cc4ccccc4)CC3)nc(-c3ccccc3Cl)c2c1N`, the “% Inhibition” value is listed as -2% and the Z score worked out at 0.34.

For the compound `O=C1OCC2(CCN(C(=O)c3cc(C(F)(F)F)ccc3Cl)CC2)O1`, the “% Inhibition” value is on record as -2% and the Z score amounted to 0.29.

`O=C(c1ccoc1C1CC1)N1CCn2ccnc21`: the “% Inhibition” value is given as -14% and the Z score is recorded as 2.16.

As to `CCc1noc2nc(C)nc(N3CCC[C@H](C(=O)Nc4ccccc4Cl)C3)c12`, the “% Inhibition” value was -1% and the Z score amounted to 0.11.

With `O=C(NCCC1=CCCCC1)c1cnn(-c2ccncc2)c1C(F)F`, the “% Inhibition” value is on record as -9% and the Z score was 0.82.

On to `CNC(=O)[C@H]1CCc2nc(N3CCN(C(C)=O)CC3)sc2C1`, for which the “% Inhibition” value came to 28% and the Z score is reported as -3.23.

For the compound `Cc1cnc(C(C)CNC(=O)NC2CCCCC2n2cccn2)s1` (stereo not drawn), the “% Inhibition” value is on record as -2% and the Z score is 0.25.

Regarding `CCCN(Cc1cc(NC(=O)c2cccc(OC)c2)ccc1N(C)C)C(=O)c1ccc(F)cc1`, the “% Inhibition” value was -4% and the Z score stood at 0.58.

Turning to `CC1(C)C[C@@H](NC2CCN(c3ccc(-n4cccn4)cc3)CC2)CCO1`, the “% Inhibition” value came out at 6% and the Z score is given as -1.13.

For the compound `CCN(CC)C(=O)c1ccc2c(c1)N(CC(=O)N1CCCCC1)C(=O)CO2`, the “% Inhibition” value is reported as 13% and the Z score was -1.69.

Regarding `COc1ccc(CNC(C)(C)C#N)cc1`, the “% Inhibition” value is given as -9% and the Z score worked out at 1.68.

With `COc1cc(Cl)ccc1C(=O)N(C)C1C2CCOC2C1(C)C` (stereo not drawn), the “% Inhibition” value is listed as -14% and the Z score was determined as 1.15.

Turning to `CC(C)c1nnsc1CN1CCCn2nc([C@@H](O)CN(C)C)cc2C1`, the “% Inhibition” value was -4% and the Z score is listed as 0.7.

For `COc1ccc(-c2noc(NCC3CCN(Cc4ccccc4F)CC3)n2)cc1OC`, the “% Inhibition” value is -13% and the Z score is 1.1.
